# From publication PMC4336329 (PLoS ONE, 2015)
# In all, about 310,000 compounds went through this assay and about 2,200 (0.71%) showed an effect of 50% or more. The effect is printed as a negative number. Some of the results follow.
# Target: human ether-à-go-go-related gene (hERG) potassium channel (human, UniProt Q12809)
# Experiment: primary screen, population patch clamp on CHO cells stably expressing hERG
# human ether-à-go-go-related gene (hERG) potassium channel, sequence (Q12809 whole entry, looked up): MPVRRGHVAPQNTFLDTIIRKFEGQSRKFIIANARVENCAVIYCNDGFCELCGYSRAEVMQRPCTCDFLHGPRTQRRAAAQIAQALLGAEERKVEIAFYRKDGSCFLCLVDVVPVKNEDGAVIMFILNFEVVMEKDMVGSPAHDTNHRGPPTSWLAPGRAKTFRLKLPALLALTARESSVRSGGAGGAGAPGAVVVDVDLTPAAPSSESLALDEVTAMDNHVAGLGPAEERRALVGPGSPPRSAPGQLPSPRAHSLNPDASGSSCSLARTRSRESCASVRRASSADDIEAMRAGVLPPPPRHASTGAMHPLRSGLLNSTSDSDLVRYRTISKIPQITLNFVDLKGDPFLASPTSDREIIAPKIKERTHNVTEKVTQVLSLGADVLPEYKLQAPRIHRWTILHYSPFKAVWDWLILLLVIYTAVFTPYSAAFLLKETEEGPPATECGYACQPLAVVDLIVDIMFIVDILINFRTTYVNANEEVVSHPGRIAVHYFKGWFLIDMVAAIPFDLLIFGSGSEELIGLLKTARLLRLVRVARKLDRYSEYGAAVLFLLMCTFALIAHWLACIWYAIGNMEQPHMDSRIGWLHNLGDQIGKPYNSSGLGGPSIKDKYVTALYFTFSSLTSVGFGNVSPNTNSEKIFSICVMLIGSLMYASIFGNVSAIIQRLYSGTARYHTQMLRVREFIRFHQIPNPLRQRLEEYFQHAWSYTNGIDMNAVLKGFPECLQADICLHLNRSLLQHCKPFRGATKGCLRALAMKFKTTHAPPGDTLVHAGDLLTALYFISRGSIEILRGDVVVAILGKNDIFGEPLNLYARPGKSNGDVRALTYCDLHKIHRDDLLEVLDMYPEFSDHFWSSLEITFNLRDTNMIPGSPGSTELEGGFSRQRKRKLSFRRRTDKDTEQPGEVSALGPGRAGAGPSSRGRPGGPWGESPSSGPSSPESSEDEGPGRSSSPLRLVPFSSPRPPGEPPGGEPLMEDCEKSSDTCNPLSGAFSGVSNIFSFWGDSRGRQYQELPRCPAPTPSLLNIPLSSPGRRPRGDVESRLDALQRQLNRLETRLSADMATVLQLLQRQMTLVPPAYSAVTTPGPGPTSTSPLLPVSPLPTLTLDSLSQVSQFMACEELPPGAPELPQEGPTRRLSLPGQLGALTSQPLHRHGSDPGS
row,Compound,"hERG current change (%, negative = inhibition) at 1uM [%]"
1,N#CCc1c(C#N)c(N)nc(N2CCN(S(=O)(=O)c3ccccc3F)CC2)c1C#N,6.36
2,CC(=O)c1ccc(NC(=O)CN2CCN(c3ccccc3)CC2)cc1.Cl,3.51
3,O=[N+]([O-])c1ccccc1S(=O)(=O)N1CCN(c2ccc(F)cc2)CC1,1.19
4,CN1CCC(OC(=O)Cc2ccc(Cl)cc2)CC1.Cl,9.51
5,Cc1ccc(S(=O)(=O)CCc2nnc(NC(=O)c3cnccn3)s2)cc1,15
6,CC1CCCN(C/C(O)=C(\C#N)c2nc3ccccc3[nH]2)C1 (stereo not shown),-8.95
7,Nc1c(Cl)ncnc1N1CCOCC1,14.1
8,COc1ccc(-c2nn(-c3ccccc3)cc2C(=O)NC2CCC(C)CC2)cc1 (stereo not shown),14.9
9,Cc1ccc(S(=O)(=O)N(CC(=O)NCc2ccncc2)Cc2ccccc2F)cc1,-53.2
10,O=C(CC1Sc2ncnn2C1=O)Nc1ccc(Cl)cc1 (stereo not shown),7.42
11,COc1ccc(C(=O)CN2CCN(c3ncccn3)CC2)cc1.O=C(O)C(=O)O,13.5
12,O=C(c1cccc([N+](=O)[O-])c1)c1ccc2c(c1)C(=O)N(c1c[nH]c(=O)[nH]c1=O)C2=O,11.7
13,COc1cc(-c2nc(CN3CCN(CC(C)C)C(=O)[C@@H]3C)c(C)o2)ccc1F,-2.5
14,COc1ccc(N2CCN(C(=O)CCC(=O)N3CC(C)Oc4ccc(C)cc43)CC2)cc1 (stereo not shown),-2.69
15,CC1CCCCC1NC(=O)COC(=O)COc1ccccc1Cl (stereo not shown),10.5
16,Cc1cc(N2CCOCC2)nc2ccc(NC(=O)CCC(=O)N3CCN(c4ccc(F)cc4)CC3)cc12,21.6
17,Cc1cnc(C(=O)OCc2nc3ccsc3c(=O)[nH]2)cn1,11.2
18,Cc1ccc(NC(=O)CCn2c(=O)[nH]c3ccsc3c2=O)cc1,5.73
19,COc1ccc(S(=O)(=O)NCC(=O)Nc2cccc(C)c2C)cc1OC,4.26
20,CN(C)c1ccc(NC(=O)Cn2cc3c(n2)CCCC3)cc1,14.4
21,CC(=O)Nc1sc2c(c1C(N)=O)CCN(Cc1ccccc1)C2.Cl,3.9
22,CCn1cc(Br)c(C(=O)N2CCN(c3ccccc3)CC2)n1,8.45

row,Compound,"hERG current change (%, negative = inhibition) at 1uM [%]"
1,O=C(NCc1ccco1)/C(=C/C=C\c1ccccc1)NC(=O)c1ccc(Br)o1,-8.24
2,COCC1CCCN(Cc2nc(C(c3ccccc3)c3ccccc3)no2)C1 (stereo not shown),0.832
3,Cc1nccc2oc(=O)c(NC(=O)c3ccc(Cl)cc3)cc12,0.16
4,CCC(C)(C(=O)NC1CCCC1)N(Cc1cccs1)C(=O)c1ccccn1 (stereo not shown),9.84
5,O=C1c2ccccc2C(=O)C1c1ccccn1,8.84
6,Cc1ccc(C(=O)N/C(=C\c2cn(-c3ccccc3)nc2-c2ccccc2)C(=O)N2CCOCC2)cc1,11.5
7,Cc1ccc(NC(=O)c2cc(S(=O)(=O)N(C)C)ccc2N2CCCC2)cc1S(=O)(=O)N(C)C,5.68
8,COc1ccc(NC(=O)COC(=O)CCCc2c[nH]c3ccccc23)cc1,-3.54
9,COC(=O)C1=C(c2cc3ccccc3s2)C[C@@H]2CC[C@H]1N2C(=O)NCC1CC1,10.7
10,O=C(Nc1ccc(Oc2cccnc2)cc1)c1cccc([N+](=O)[O-])c1,-1.33
11,COC(=O)c1ccsc1NC(=O)CCc1ccccc1,16.6
12,COc1cc(/C=C2/NC(=O)N(CC(=O)Nc3cccc(C)c3)C2=O)ccc1OCC(N)=O,18.7
13,O=C(COC(=O)c1ccc(CNS(=O)(=O)c2ccc(F)c(Cl)c2)cc1)NCC1CCCCC1,-0.534
14,O=C(Nc1ccc(S(=O)(=O)N2CCCCC2)cc1)C1CC(=O)N(c2ccc(F)cc2)C1 (stereo not shown),19.8
15,Cc1cccc(N/N=C/c2ccccc2O)c1,8.13
16,CCOc1ccc(Br)cc1CNCCN1CCOCC1,16.4
17,N#Cc1cn(Cc2cccc(Cl)c2)c2ccccc12,0.952
18,Cc1cccc(C)c1NC(=O)NC1CCc2ccccc21 (stereo not shown),14.2
19,Cc1cc(=O)[nH]c(SCC(=O)c2ccc(C(C)C)cc2)n1,7.25
20,O=C(CN(c1ccccc1F)S(=O)(=O)c1ccccc1)Nc1ccccc1C(=O)N1CCOCC1,9.33
21,CN(C(=O)N1CCN(c2ccccn2)CC1)c1ccccc1,16.8
